# From the supplement of paper PMC7826260
# This is one part of the list. Cleavage of a single-stranded DNA pool by Rep nickase domains was read by sequencing at 3 µM enzyme and 37 °C for 1 h; the strands have 90 letters, of which the middle is given. The score is log2 (uncut reads / reads without enzyme); the lower, the more was cut; hits are not called. Counts are relative to all reads; uncut strands gain when others are lost, and binding without cutting may add a little.
# Tests used:
# Experiment in all cases: uncleaved DNA left, log2 of reads against the no-enzyme library (log2 ratio); higher = less cleavage (more negative = more Rep cleavage of the k-mer); sequences stand for … in CTCGTCCG…ACCGGAGA
# [1] = tested on: T1, Rep nickase domain of Muscovy duck circovirus
# T1 sequence (residues 1-111 of Rep, tag left off): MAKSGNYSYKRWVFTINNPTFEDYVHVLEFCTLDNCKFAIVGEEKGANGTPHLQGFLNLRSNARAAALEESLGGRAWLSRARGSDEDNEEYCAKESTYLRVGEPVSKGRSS
# Procedure: (§1)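 A pool of 90-nt single-stranded DNAs with seven random bases just before the constant AC of the nick site (name = the seven bases) was cut by 3 µM recombinant His6-SUMO-tagged Rep nickase domain (300 nM DNA, 50 mM HEPES pH 8.0, 50 mM NaCl, 1 mM MnCl2, 1 h, 37 °C, three replicates). Uncut DNA was amplified and sequenced.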
# [2] = tested on: T2, Rep nickase domain of banana bunchy top virus
# T2 sequence (residues 1-94 of Rep, tag left off): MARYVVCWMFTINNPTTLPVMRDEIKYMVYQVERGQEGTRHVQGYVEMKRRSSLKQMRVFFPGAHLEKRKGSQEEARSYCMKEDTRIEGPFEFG
# Procedure: as §1
# [3] = tested on: T3, Rep nickase domain of cabbage leaf curl virus
# T3 sequence (residues 1-116 of Rep, tag left off): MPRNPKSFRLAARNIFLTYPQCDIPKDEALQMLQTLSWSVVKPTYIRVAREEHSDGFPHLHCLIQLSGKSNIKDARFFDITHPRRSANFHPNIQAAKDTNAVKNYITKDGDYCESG
# Procedure: as §1
# [4] = tested on: T4, Rep nickase domain of chickpea chlorotic dwarf virus
# T4 sequence (residues 1-124 of Rep, tag left off): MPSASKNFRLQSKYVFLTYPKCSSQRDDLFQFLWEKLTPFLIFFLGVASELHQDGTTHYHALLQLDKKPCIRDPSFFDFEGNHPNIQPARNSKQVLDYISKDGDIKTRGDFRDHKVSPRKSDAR
# Procedure: as §1
# [5] = tested on: T5, Rep nickase domain of faba bean necrotic yellows virus
# T5 sequence (residues 1-98 of Rep, tag left off): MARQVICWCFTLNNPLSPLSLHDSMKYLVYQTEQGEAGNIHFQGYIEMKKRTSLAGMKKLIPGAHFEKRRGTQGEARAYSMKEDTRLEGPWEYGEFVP
# Procedure: as §1
# [6] = tested on: T6, Rep nickase domain of maize striate mosaic virus
# T6 sequence (residues 1-117 of Rep, tag left off): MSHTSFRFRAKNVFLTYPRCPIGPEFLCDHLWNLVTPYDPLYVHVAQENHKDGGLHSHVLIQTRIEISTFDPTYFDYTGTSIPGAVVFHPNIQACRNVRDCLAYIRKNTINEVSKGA
# Procedure: as §1
# [7] = tested on: T7, Rep nickase domain of porcine circovirus 2
# T7 sequence (residues 2-116 of Rep, tag left off): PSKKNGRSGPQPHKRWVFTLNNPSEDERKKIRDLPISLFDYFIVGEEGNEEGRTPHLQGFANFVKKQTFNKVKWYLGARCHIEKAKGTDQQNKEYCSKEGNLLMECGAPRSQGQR
# Procedure: as §1
# [8] = tested on: T8, Rep nickase domain of tomato golden mosaic virus
# T8 sequence (residues 1-124 of Rep, tag left off): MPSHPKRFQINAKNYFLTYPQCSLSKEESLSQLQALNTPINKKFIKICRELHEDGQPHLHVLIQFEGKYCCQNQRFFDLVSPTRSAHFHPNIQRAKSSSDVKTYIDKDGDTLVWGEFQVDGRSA
# Procedure: as §1
# [9] = tested on: T9, Rep nickase domain of tomato yellow leaf curl virus
# T9 sequence (residues 1-136 of Rep, tag left off): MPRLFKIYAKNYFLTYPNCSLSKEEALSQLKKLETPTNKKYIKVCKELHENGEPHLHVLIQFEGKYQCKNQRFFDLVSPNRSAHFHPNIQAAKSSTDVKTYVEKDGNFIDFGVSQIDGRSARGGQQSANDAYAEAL
# Procedure: as §1
# [10] = tested on: T10, Rep nickase domain of wheat dwarf virus
# T10 sequence (residues 1-137 of Rep, tag left off): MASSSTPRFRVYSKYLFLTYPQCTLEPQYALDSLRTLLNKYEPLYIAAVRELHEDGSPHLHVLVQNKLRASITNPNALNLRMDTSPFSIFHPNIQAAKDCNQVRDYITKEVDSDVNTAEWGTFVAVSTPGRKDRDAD
# Procedure: as §1
Sequence,uncleaved DNA left (log2) [1],uncleaved DNA left (log2) [2],uncleaved DNA left (log2) [3],uncleaved DNA left (log2) [4],uncleaved DNA left (log2) [5],uncleaved DNA left (log2) [6],uncleaved DNA left (log2) [7],uncleaved DNA left (log2) [8],uncleaved DNA left (log2) [9],uncleaved DNA left (log2) [10]
TATCCCT,-0.0753,-0.0804,-0.504,-2.94,-0.0421,-0.18,-1.51,-0.181,-0.0601,-0.108
GTACAAC,-0.00762,0.174,0.371,0.524,0.015,1.6,0.131,0.0554,0.188,0.114
TTCCACA,0.0984,0.0639,0.274,-0.855,-0.0318,0.405,0.0386,0.121,0.104,0.0783
CTCATCA,-0.169,0.028,0.0867,-0.626,-0.112,-0.42,-0.197,-0.125,-0.0163,0.00906
CTAGGTG,0.13,0.0694,-0.451,-0.299,0.0282,-0.752,0.133,0.124,0.0832,0.0335
AATTCTA,-1.72,-0.573,-0.192,-2.7,-0.0461,-0.916,-2.22,-0.158,-0.12,-0.235
AAGGGTA,-0.0694,0.136,0.301,1.31,-0.0521,1.5,0.0831,0.163,-0.0287,0.0453
GTACGCT,-0.0968,0.0508,0.132,0.0517,-0.00206,0.804,-0.00253,0.0955,-0.13,-0.0438
GGCTGTC,0.058,0.0023,0.447,1.11,-0.0348,1.56,0.143,0.0138,-0.134,0.104
AGCGTTC,-0.061,0.0311,-0.059,0.221,-0.0238,0.242,-0.179,-0.0198,-0.025,-0.0299
TCTTCAA,0.0698,0.0341,0.111,-0.0426,-0.0185,-0.217,0.0514,-0.00947,0.0858,0.0566
ACGATCT,-0.146,-0.155,-0.277,-1.73,-0.0682,-0.515,-0.303,-0.196,-0.159,-0.238
CCTGGAC,0.0678,0.0545,0.367,1.1,0.015,1.26,0.216,0.0978,0.0449,-0.0342
GACAACT,0.000466,-0.0692,0.0985,-2.46,0.0186,0.57,-1.33,-0.0728,-0.0155,0.0422
CCTTTGA,-0.03,-0.123,-0.433,-0.613,-0.0693,-1.22,0.0128,-0.217,-0.175,-0.107
